From the RNAGym collection of RNA variant scans (doi:10.7554/elife.90254) come the findings set out here.

B1: LINE1-mini (parent)
chain: GGCAGAGCUCAACACAGCGUGGCAAAGUGGCUGUGGCUAGACUGCC

Read counts are not given, so values of variants with three or more changes are uncertain.

The data set covers variants of B1. The data set is described as follows: self-cleavage, relative activity (ratio to wild type); higher = more cleavage; in vitro, sequencing; the parent is a self-cleaving ribozyme.
With A11G G22C A25G G30U U34G G35C, the self-cleavage was 0.
Under A11U C31U G40A stands 0.03; under A11U C13U C31U U38A, 0.03; under A11U C23A A26C, 0.18.
As for A11U C15A C18G, the self-cleavage is 0.04.
Under A11G G29U G44U stands 0; under A12C A14U U28A C42A, 0.01.
A11U C15A G19U U32C: the self-cleavage worked out at 0.01.
Turning to A11U C18A A25C A39U, the self-cleavage is 0.04.
Under A11U C15U C23A C37U stands 0.01; under A11U G17U A24U A41G, 0.02; under A11U A16C G22A, 0.01.
Under A11G C18A U20A G22A stands 0.01; under A11U C13A G44C, 0.02.
A11G C15G A25U: the self-cleavage stood at 0.02.
Turning to A11U G19A G22U, the self-cleavage is 0.06.
Next, A11U U28A C31G C37U: 0.01; A11U A26U G33C: 0.02.
A11U A16U U32A: the self-cleavage was found to be 0.25.
On to A11U U34A U38A C45G, for which the self-cleavage worked out at 0.
Under A11U C15A A39C stands 0.01.
For the variant A12C A14C A16C G35A, the self-cleavage worked out at 0.04.
Next, A11U C13A C31A: 0.02; A11G G36C U38A: 0.01.
As for A11G C18A G22A G36C, the self-cleavage was found to be 0.
Under A11U C15A G35A U38G stands 0.01; under A11U U20C U32C, 0.03; under A11U G17A G44U, 0.02.
A11U G17A G27U G29U: the self-cleavage came to 0.03.
Under A11U A12C G33C U34G stands 0; under A11U C13U C18U C23U A24U, 0.02.
Under A11U G21C G29C U34C C45A stands 0.02.
Next, A11G G35U A39C: 0.02.
With A11U C13A G22C A24U C42G C46U, the self-cleavage turned out to be 0.
Regarding A11U A25G G27U C42G, the self-cleavage is 0.01.
A11G G17C C31A: the self-cleavage is 0.01.
Under A11U C23A G27C stands 0.06; under A11U A41U C46A, 0.02; under A11U A12U C18G G27C, 0.
Next, A12C A14U C15G G21U: 0.04; A11G C23A C45G: 0.03.
As to A11U G22A C45A, the self-cleavage is 0.03.
Next, A11U G40A C42A: 0.02.
Under A11U U20G G36C A39U stands 0.01; under A11G G19C G21C A26U G29U A39G G40U, 0.01.
For A11U G21C A26U, the self-cleavage came to 0.04.
For A11U C13U A39U, the self-cleavage is 0.02.
A11G C18U G35C A39C C46A: the self-cleavage amounted to 0.
Take A11U C18G U28A C31U: the self-cleavage came out at 0.01.
Regarding A11G U20A G33C, the self-cleavage stood at 0.02.
Under A11U A14C C15G G29A G40A stands 0; under A11U U20A G21C, 0.09; under A11U A12U G22A, 0.12.
On to A11U G29U G40U C45U, for which the self-cleavage was determined as 0.02.
Turning to A11U A12U G29C, the self-cleavage is 0.03.
Next, A11U A25U G40U: 0; A11G G19U A25C: 0.04.
With A11G G17U C23U, the self-cleavage was 0.03.
Take A11G C31G U43A: the self-cleavage came to 0.
Turning to A11U A24G G40C U43G, the self-cleavage was found to be 0.01.
As for A11G G27U C37A C45G, the self-cleavage worked out at 0.
Under A11U A12C U28C C37A A41U C42U stands 0.
On to A11U A14U G17A G36U, for which the self-cleavage was determined as 0.02.
Under A11U C15U G44U stands 0.03; under A11G C15G U28G G30C, 0.
Next, A11U G17A G30A U43G: 0; A12C A14C G35U: 0.06.
Take A11U U20A G40U C45A: the self-cleavage turned out to be 0.
As for A11G G17A C31A G36A, the self-cleavage was 0.03.
Next, A11U G36A C37A: 0.05.
Consider A11U A16U A41U C42U C46A, for which the self-cleavage is 0.02.
As for A11G U20C C31U G40C, the self-cleavage worked out at 0.01.
Under A11U G30A G36C stands 0.01; under A11U C31U U43C, 0.06.
Under A11U A14C C18U stands 0.02; under A11G C37U C46A, 0.
Under A11U C42A G44A stands 0.03.
On to A11G U20A G30A G35A C42U, for which the self-cleavage stood at 0.01.
A11U G35U G44C: the self-cleavage is 0.01.
Under A11U C15G C31A C45G stands 0; under A11U C18A G21C G22A C23G G30U C45G, 0.02.
Next, A11U G30A C31U: 0.03; A11U C13A C15A A25U G29C A39U C45G: 0.
On to A11U A12C C31A, for which the self-cleavage came to 0.02.
Under A11U G22A A26G C37G C45G stands 0.01.
In the case of A11G G27A G44A, the self-cleavage is 0.03.
Under A11U G17C U28G A39C C45G C46U stands 0.01.
As for A11U C15U G40A, the self-cleavage turned out to be 0.02.
Consider A11U C37U C45U, for which the self-cleavage is 0.02.
Under A11G C15G G30U C31G A39U stands 0.01.
Turning to A11G G27U U43C, the self-cleavage worked out at 0.02.
Under A11U C37G C42A stands 0.01; under A12C A16G A24G, 0.01; under A11G G21C U28A G36C C42A, 0.
Under A11U G22U A25U stands 0.15; under A11U G27A G33C, 0.01; under A11U A26U G29A, 0.14.
Under A11G G19U G29U U32A A41G G44U stands 0.01; under A11U U20G A26U, 0.11; under A11G U20G G21U, 0.03.
As to A11G G21U G27U G30C G40A, the self-cleavage was determined as 0.02.
Under A11G C31U G44C stands 0.01; under A11G G22A G35A C45U, 0.02; under A11G G17C G30A, 0.03.
Regarding A11U C13U G22U A26U, the self-cleavage came out at 0.04.
Take A11G C31U A41U: the self-cleavage worked out at 0.02.
For A11G G30A G33U U43C C46G, the self-cleavage stood at 0.
For the variant A11U G27U G29U, the self-cleavage amounted to 0.09.
Regarding A11U U34A G40U C42A, the self-cleavage stood at 0.
Under A11U C13G U32C stands 0.01.
For the variant A11U A24U U38C, the self-cleavage amounted to 0.1.
As to A11U A16C A24G, the self-cleavage was determined as 0.03.
Turning to A12C A14C G17C C18U G21U, the self-cleavage stood at 0.02.
Regarding A11U A26C A39C, the self-cleavage was 0.
Turning to A11U A24U C37A, the self-cleavage was 0.01.
Under A11U C13U G30A stands 0.05.
As to A11U G35C U38C, the self-cleavage is 0.04.
Under A11U C13G G36A stands 0.01; under A11U C13A C42A, 0; under A11U C15A G40A C42G, 0.02.
Under A11U U20C U28C stands 0.07; under A11U C13A C15A A16U, 0.02.
Under A11U G35U C42U stands 0.04.
On to A11U C15A G30C C46A, for which the self-cleavage was determined as 0.02.
Under A11U A12G G29A G44C stands 0; under A11U A16U G30A, 0.07.
Turning to A12C A16G C31A G44C, the self-cleavage came out at 0.01.
Next, A12C A14U A16G G21U G36U: 0.01; A11U C15A C18A G36U A39G A41U: 0.01; A11U G36C U38A: 0.03.
With A11U G36A G40U, the self-cleavage was 0.
For the variant A11U C31U U38G G44U, the self-cleavage is 0.01.
Under A11G C15G A16U C45A stands 0.05.
Next, A12C A16C G33C C37G: 0.01; A11U C18U C37U: 0.01; A11U C18A G40A: 0.01.
Next, A11G G21U G30U: 0.01; A11G G27A G29U G33A C37A G40U A41U: 0; A11U G30A G36U A39U A41U: 0.
As to A11U G22A G36A, the self-cleavage came to 0.02.
Next, A11G C18A G19A: 0.01; A11G U20G G36A A41G C42U: 0.
For the variant A11G C18U G21C A24G, the self-cleavage turned out to be 0.07.
Next, A11U G22A U38A U43G C46U: 0; A11U U20G A25C A26G: 0.01; A11U U28C G29A: 0.1.
Next, A11U U28C G29U: 0.1; A11G C23U U32C: 0.01.
Under A11G G29A C42G stands 0.05.
In the case of A11G U20A C37G U38G, the self-cleavage was 0.
Next, A11U A24U G44C: 0.01; A11G G21U G29C G33C: 0.01.
Under A11U C18G C23U G29A A39C stands 0.05; under A11G U20C G29A G33U G36A U38C, 0.02; under A11U G35A G36C U38C, 0.03.
Under A11G G17U U43G stands 0.03.
Regarding A11U C13G G44U, the self-cleavage was 0.04.
Next, A11G C15U G17C C18G G35C C37A: 0.
Next, A11U G17C U34A G35U C37A: 0; A11G U34C C42A: 0.04.
For the variant A11U C13A C23G C37A, the self-cleavage stood at 0.04.
Under A11U A14U C42A G44C stands 0.03.
Take A11U C18A A24G A41C: the self-cleavage was 0.03.
On to A11U C13U C37U, for which the self-cleavage was 0.01.
As to A11U C15A G33U C45A, the self-cleavage was 0.03.
On to A11U A16G G29C G30A, for which the self-cleavage was 0.05.
Under A11U G21A G30U stands 0.37.
